# The other results are listed elsewhere or left out.
# B1: StcE (Escherichia coli), O82882.2 (protein)
# chain: ADNNSAIYFNTSQPINDLQGSLAAEVKFAQSQILPAHPKEGDSQPHLTSLRKSLLLVRPVKADDKTPVQVEARDDNNKILGTLTLYPPSSLPDTIYHLDGVPEGGIDFTPHNGTKKIINTVAEVNKLSDASGSSIHSHLTNNALVEIHTANGRWVRDIYLPQGPDLEGKMVRFVSSAGYSSTVFYGDRKVTLSVGNTLLFKYVNGQWFRSGELENNRITYAQHIWSAELPAHWIVPGLNLVIKQGNLSGRLNDIKIGAPGELLLHTIDIGMLTTPRDRFDFAKDKEAHREYFQTIPVSRMIVNNYAPLHLKEVMLPTGELLTDMDPGNGGWHSGTMRQRIGKELVSHGIDNANYGLNSTAGLGENSHPYVVAQLAAHNSRGNYANGIQVHGGSGGGGIVTLDSTLGNEFSHEVGHNYGLGHYVDGFKGSVHRSAENNNSTWGWDGDKKRFIPNFYPSQTNEKSCLNNQCQEPFDGHKFGFDAMAGGSPFSAANRFTMYTPNSSAIIQRFFENKAVFDSRSSTGFSKWNADTQEMEPYEHTIDRAEQITASVNELSESKMAELMAEYAVVKVHMWNGNWTRNIYIPTASADNRGSILTINHEAGYNSYLFINGDEKVVSQGYKKSFVSDGQFWKERDVVDTREARKPEQFGVPVTTLVGYYDPEGTLSSYIYPAMYGAYGFTYSDDSQNLSDNDCQLQVDTKEGQLRFRLANHRANNTVMNKFHINVPTESQPTQATLVCNNKILDTKSLTPAPEGLTYTVNGQALPAKENEGCIVSVNSGKRYCLPVGQRSGYSLPDWIVGQEVYVDSGAKAKVLLSDWDNLSYNRIGEFVGNVNPADMKKVKAWNGQYLDFSKPRSMRVVYK
# Legend:
# Assay in all cases: glycan array binding signal (z-score within array); higher = stronger binding
# Settings in all cases: glycan notation: IUPAC condensed, linker removed
# Gal3S(b1-4)GlcNAc = biological target: Gal3S(b1-4)GlcNAc
# How it was run: (§1)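 Glycan array data came from 3228 arrays in the Consortium for Functional Glycomics database, and only arrays with an available protein sequence were kept. Glycan names were put into IUPAC-condensed notation, and columns mapping to the same glycan were averaged. The binding signal is a within-array Z-score, averaged across arrays of one protein sequence run at different concentrations or buffers and across linkers. A negative Z-score can be read as non-binding.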
# Gal3S(b1-4)GlcNAc6S = biological target: Gal3S(b1-4)GlcNAc6S
# How it was run: as §1
# [1] = biological target: Gal3S(b1-4)[Fuc(a1-3)]Glc
# How it was run: as §1
# [2] = biological target: Gal3S(b1-4)[Fuc(a1-3)]Glc6S
# How it was run: as §1
# Gal3S4S(b1-4)GlcNAc = biological target: Gal3S4S(b1-4)GlcNAc
# How it was run: as §1
# Gal3S6S(b1-4)GlcNAc = biological target: Gal3S6S(b1-4)GlcNAc
# How it was run: as §1
# Gal3S6S(b1-4)GlcNAc6S = biological target: Gal3S6S(b1-4)GlcNAc6S
# How it was run: as §1
# Gal4S(b1-4)GlcNAc = biological target: Gal4S(b1-4)GlcNAc
# How it was run: as §1
# Gal4S6S(b1-4)GlcNAc = biological target: Gal4S6S(b1-4)GlcNAc
# How it was run: as §1
# Gal6P(b1-4)GlcNAc = biological target: Gal6P(b1-4)GlcNAc
# How it was run: as §1
# Gal6S(b1-3)GlcNAc = biological target: Gal6S(b1-3)GlcNAc
# How it was run: as §1
# Gal6S(b1-3)GlcNAc6S = biological target: Gal6S(b1-3)GlcNAc6S
# How it was run: as §1
# Gal6S(b1-4)Glc = biological target: Gal6S(b1-4)Glc
# How it was run: as §1
# Gal6S(b1-4)Glc6S = biological target: Gal6S(b1-4)Glc6S
# How it was run: as §1
# Gal6S(b1-4)GlcNAc = biological target: Gal6S(b1-4)GlcNAc
# How it was run: as §1
# Gal6S(b1-4)GlcNAc6S = biological target: Gal6S(b1-4)GlcNAc6S
# How it was run: as §1
# GalNAc(a1-3)Gal = biological target: GalNAc(a1-3)Gal
# How it was run: as §1
# GalNAc(a1-3)GalNAc = biological target: GalNAc(a1-3)GalNAc
# How it was run: as §1
# [3] = biological target: GalNAc(a1-3)GalNAc(b1-3)Gal(a1-4)Gal(b1-4)Glc
# How it was run: as §1
# [4] = biological target: GalNAc(a1-3)GalNAc(b1-3)Gal(a1-4)Gal(b1-4)GlcNAc
# How it was run: as §1
# GalNAc(b1-3)Gal = biological target: GalNAc(b1-3)Gal
# How it was run: as §1
# [5] = biological target: GalNAc(b1-3)Gal(a1-4)Gal(b1-4)GlcNAc
# How it was run: as §1
# [6] = biological target: GalNAc(b1-3)Gal(a1-4)Gal(b1-4)GlcNAc(b1-3)Gal(b1-4)Glc
# How it was run: as §1
# [7] = biological target: GalNAc(b1-3)Gal(a1-6)Gal(b1-4)Glc
# How it was run: as §1
# GalNAc(b1-3)GalNAc = biological target: GalNAc(b1-3)GalNAc
# How it was run: as §1
# GalNAc(b1-4)Gal(b1-4)Glc = biological target: GalNAc(b1-4)Gal(b1-4)Glc
# How it was run: as §1
# GalNAc(b1-4)GlcNAc = biological target: GalNAc(b1-4)GlcNAc
# How it was run: as §1
# [8] = biological target: GalNAc(b1-4)GlcNAc(b1-2)Man(a1-3)[GalNAc(b1-4)GlcNAc(b1-2)Man(a1-6)]Man(b1-4)GlcNAc(b1-4)GlcNAc
# How it was run: as §1
# GalNAc(b1-4)GlcNAc6S = biological target: GalNAc(b1-4)GlcNAc6S
# How it was run: as §1
# GalNAc(b1-6)GalNAc = biological target: GalNAc(b1-6)GalNAc
# How it was run: as §1
binder,measurement,setting,value
B1,glycan array binding signal (z-score),Gal3S(b1-4)GlcNAc,-0.229
same,glycan array binding signal (z-score),Gal3S(b1-4)GlcNAc6S,-0.14
same,glycan array binding signal (z-score),[1],-0.157
same,glycan array binding signal (z-score),[2],-0.153
same,glycan array binding signal (z-score),Gal3S4S(b1-4)GlcNAc,-0.136
same,glycan array binding signal (z-score),Gal3S6S(b1-4)GlcNAc,-0.175
same,glycan array binding signal (z-score),Gal3S6S(b1-4)GlcNAc6S,-0.152
same,glycan array binding signal (z-score),Gal4S(b1-4)GlcNAc,-0.309
same,glycan array binding signal (z-score),Gal4S6S(b1-4)GlcNAc,-0.123
same,glycan array binding signal (z-score),Gal6P(b1-4)GlcNAc,-0.14
same,glycan array binding signal (z-score),Gal6S(b1-3)GlcNAc,-0.163
same,glycan array binding signal (z-score),Gal6S(b1-3)GlcNAc6S,-0.169
same,glycan array binding signal (z-score),Gal6S(b1-4)Glc,0.013
same,glycan array binding signal (z-score),Gal6S(b1-4)Glc6S,0.95
same,glycan array binding signal (z-score),Gal6S(b1-4)GlcNAc,-0.156
same,glycan array binding signal (z-score),Gal6S(b1-4)GlcNAc6S,-0.14
same,glycan array binding signal (z-score),GalNAc(a1-3)Gal,-0.244
same,glycan array binding signal (z-score),GalNAc(a1-3)GalNAc,-0.221
same,glycan array binding signal (z-score),[3],-0.141
same,glycan array binding signal (z-score),[4],-0.136
same,glycan array binding signal (z-score),GalNAc(b1-3)Gal,-0.184
same,glycan array binding signal (z-score),[5],-0.152
same,glycan array binding signal (z-score),[6],-0.155
same,glycan array binding signal (z-score),[7],-0.162
same,glycan array binding signal (z-score),GalNAc(b1-3)GalNAc,-0.265
same,glycan array binding signal (z-score),GalNAc(b1-4)Gal(b1-4)Glc,-0.176
same,glycan array binding signal (z-score),GalNAc(b1-4)GlcNAc,0.006
same,glycan array binding signal (z-score),[8],-0.149
same,glycan array binding signal (z-score),GalNAc(b1-4)GlcNAc6S,-0.168
same,glycan array binding signal (z-score),GalNAc(b1-6)GalNAc,-0.141

# From the supplement of paper PMC8728848
